Hit rate of the full screen: of about 48,000 compounds, about 550 (1.1%) were called active. About 4% were inconclusive and are not listed. Cut-off read from the data, not from the text of the source: active = potency below about 15 µM; inconclusive = mostly about 16 µM to 33 µM; inactive = weaker than that. The list shows a part of the results.
Potency is the fitted concentration of half-maximal effect.

This test addresses Lysosomal acid glucosylceramidase (Homo sapiens) (UniProt P04062). Description: Glucocerebrosidase.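 Note: the screen sought inhibitors.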 The following applies: purified enzyme, resorufin glucoside fluorescence (screen aimed at inhibitors), 20 min. A digest of the protocol: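 Normal human glucocerebrosidase (0.2 nM final) was assayed with resorufin β-D-glucopyranoside (30 uM final) in 50mM citric acid/KH2PO4, 10mM sodium taurocholate, 0.01% tween-20, pH 5.9. Compounds were titrated; fluorescence (Ex 548, Em 600) read after 20 min at RT.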
Chain of UniProt P04062 (P04062 whole entry, looked up): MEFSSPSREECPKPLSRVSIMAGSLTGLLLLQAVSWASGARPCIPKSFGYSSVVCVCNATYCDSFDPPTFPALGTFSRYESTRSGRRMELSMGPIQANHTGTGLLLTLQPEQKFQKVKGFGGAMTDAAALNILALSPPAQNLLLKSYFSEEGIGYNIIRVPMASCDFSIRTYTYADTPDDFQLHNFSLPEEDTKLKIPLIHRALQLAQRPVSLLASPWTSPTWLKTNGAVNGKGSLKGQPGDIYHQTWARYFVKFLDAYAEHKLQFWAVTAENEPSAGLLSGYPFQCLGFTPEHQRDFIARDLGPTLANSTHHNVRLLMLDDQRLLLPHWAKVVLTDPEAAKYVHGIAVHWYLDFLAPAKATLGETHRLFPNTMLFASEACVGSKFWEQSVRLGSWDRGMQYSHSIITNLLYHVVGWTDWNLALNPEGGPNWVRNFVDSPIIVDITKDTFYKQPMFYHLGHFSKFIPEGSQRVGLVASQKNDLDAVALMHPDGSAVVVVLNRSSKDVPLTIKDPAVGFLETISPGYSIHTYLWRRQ
Take `O=C(c1ncc[nH]1)c1ccccc1C(=O)N1CCOCC1`: the Potency was inactive: > 76.9 µM.

On to `NC(=O)C1CCN(C(=O)CN2CCc3ccccc32)CC1`, for which the Potency is inactive: > 76.9 µM.

Turning to `COc1cccc(C(=O)N(Cc2ccc3c(c2)OCO3)Cc2nc3ccccc3c(=O)[nH]2)c1`, the Potency is inactive: > 76.9 µM.

With `CC1CCN(S(=O)(=O)c2ccc(S(=O)(=O)NCC(=O)C(C)(C)C)cc2)CC1`, the Potency is inactive: > 76.9 µM.

`O=S(=O)(Nc1nc2ccccc2nc1NCc1ccco1)c1cccs1`: the Potency is inactive: > 76.9 µM.

Turning to `CN(Cc1ccccc1)C(=O)c1ccc2c(c1)OCO2`, the Potency was inactive: > 76.9 µM.

Consider `COC(=O)c1[nH]c2cc(OC)ccc2c1NC(=O)CCN1CCN(Cc2ccc3c(c2)OCO3)CC1`, for which the Potency is inactive: > 76.9 µM.

In the case of `CN(C)c1ccnc2sc3c(=O)n(Cc4ccccc4)cnc3c12`, the Potency was inactive: > 76.9 µM.

Regarding `O=C(Nc1ccc(-c2nc3ncccc3o2)cc1)c1ccco1`, the Potency is inactive: > 76.9 µM.

Turning to `Cc1cc(-c2nnc3n2CCCCC3)c(C)n1-c1ccccc1`, the Potency is inactive: > 76.9 µM.

For the molecule `Cc1nc(Cc2nnc(SCc3nc(N)nc(Nc4ccccc4C)n3)o2)cs1`, the Potency is inactive: > 76.9 µM.

Regarding `COc1ccc(NC(=O)C2CCN(c3nc(C)nc4c3CCC4)CC2)cc1`, the Potency is inactive: > 76.9 µM.

As for `CN(C)S(=O)(=O)c1ccc(C(=O)Nc2ccnn2C2CCCCC2)cc1`, the Potency is inactive: > 76.9 µM.

As to `CCOC(=O)Cn1c(=O)c2c(nc(Br)n2CC(=O)OCC)n(C)c1=O`, the Potency is inactive: > 76.9 µM.

Turning to `O=C(CCCC(=O)N(CC(=O)NC1CCCCC1)Cc1ccc2c(c1)OCO2)Nc1ccccn1`, the Potency was inactive: > 76.9 µM.

For the molecule `Cc1cccc(NC(=O)C2CCCN(C(=O)Nc3ccccc3)C2)c1C` (stereo unspecified), the Potency is inactive: > 76.9 µM.

For `CN(C(=O)c1ccc(NC(=O)c2cnccn2)cc1)C1CCCCC1`, the Potency was inactive: > 76.9 µM.

With `CC1CN(C(=O)C(C)N2C(=O)c3ccccc3C2=O)CC(C)O1` (stereo unspecified), the Potency was inactive: > 76.9 µM.

For `O=C(Nc1ccc(Cl)cc1)c1cc2nc(-c3ccco3)cc(C(F)(F)F)n2n1`, the Potency was inactive: > 76.9 µM.

As to `O=C(CCS(=O)(=O)c1cccc2nsnc12)N1CCN(Cc2ccc3c(c2)OCO3)CC1`, the Potency was inactive: > 76.9 µM.

Take `CCN1C(=O)/C(=C2/Sc3ccc(OC)cc3N2C)SC1=Nc1cccc(O)c1`: the Potency is inactive: > 76.9 µM.

Consider `CCCC1C(C#N)=C(N)Oc2cc(C)n(C)c(=O)c21` (stereo unspecified), for which the Potency is inactive: > 76.9 µM.

Consider `CCCn1c(SCC(=O)Nc2ccc3c(c2)OCO3)nc2c1c(=O)n(C)c(=O)n2C`, for which the Potency was inactive: > 76.9 µM.

As to `COc1ccccc1C1CC(=O)Nc2cc3c(cc21)OCCO3` (stereo unspecified), the Potency is inactive: > 76.9 µM.

Consider `Cn1c(SCc2nnc(-c3ccc(F)cc3)o2)nnc1C1COc2ccccc2O1` (stereo unspecified), for which the Potency was inactive: > 76.9 µM.

Regarding `COCCNC(=O)C(OC(=O)c1cccs1)c1ccccc1` (stereo unspecified), the Potency is inactive: > 76.9 µM.

Take `CC(C)CCNC(=O)C(c1cccs1)N(CC1CCCO1)C(=O)Cn1nnc2ccccc21` (stereo unspecified): the Potency is inactive: > 76.9 µM.

For `CCn1c(SCCC(=O)O)nnc1-c1cccnc1`, the Potency is inactive: > 76.9 µM.

In the case of `Cc1ccc(S(=O)(=O)N(C)Cc2nc(-c3ccncc3)no2)cc1`, the Potency is inactive: > 76.9 µM.

As to `Cn1c(=O)c2c(nc(NCc3ccccc3)n2CCCc2ccccc2)n(C)c1=O`, the Potency is inactive: > 76.9 µM.

Turning to `CC(=O)Nc1ccc(NC(=O)CNS(=O)(=O)c2ccc(C)cc2)cc1`, the Potency is inactive: > 76.9 µM.

Regarding `CCCc1nc2c3cnn(-c4cccc(Cl)c4)c3ncn2n1`, the Potency is inactive: > 76.9 µM.

In the case of `COC(=O)c1[nH]c2ccccc2c1NC(=O)CN1CCN(C/C=C/c2ccccc2)CC1`, the Potency result is “inactive”.

As for `c1ccc(-n2nnnc2SCc2cn3cccnc3n2)cc1`, the Potency was inactive: > 76.9 µM.

In the case of `O=C(Nc1ccn(C2CC(OC(=O)c3ccccc3)C(CO)O2)c(=O)n1)c1ccccc1` (stereo unspecified), the Potency was inactive: > 76.9 µM.

For the molecule `Cn1c2ccccc2c(=O)n2c(=O)c3ccccc3cc12`, the Potency is inactive: > 76.9 µM.

In the case of `COC(=O)c1cc(-c2c(C)nn(-c3ccccc3)c2C)n[nH]1`, the Potency was inactive: > 76.9 µM.

As to `COc1ccc(OC)c(NC(=O)CSCc2cnn(-c3ccccc3)c2-n2cccc2)c1`, the Potency was inactive: > 76.9 µM.

In the case of `CC1=CC(C)(C)N2C(=O)C3(C(C#N)=C(N)OC4=C3C(=O)CC(C)(C)C4)c3cccc1c32` (stereo unspecified), the Potency was inactive: > 76.9 µM.

As for `COc1ccc(C2NC(C(=O)O)CS2)cc1COCC(F)(F)F` (stereo unspecified), the Potency is inactive: > 76.9 µM.

For the molecule `CCOC(=O)c1c(CN2CCN(C)CC2)oc2ccc(O)cc12`, the Potency is inactive: > 76.9 µM.

With `O=C(NCc1ccco1)C(c1ccccc1)N(CC1CCCO1)C(=O)Cn1nnc2ccccc21` (stereo unspecified), the Potency was inactive: > 76.9 µM.

For the molecule `O=C(COc1ccccc1Cl)N1CCN(c2ccc(F)cc2)CC1`, the Potency is inactive: > 76.9 µM.

As to `CS(=O)(=O)N1CCc2cc(C(=O)N3CCOCC3)ccc21`, the Potency was inactive: > 76.9 µM.

Consider `Cc1ccccc1OCc1nc(-c2ccccc2)no1`, for which the Potency is inactive: > 76.9 µM.

As for `O=C(NCc1ccccc1)C1C2C=CC3(CN(Cc4cccnc4)C(=O)C13)O2` (stereo unspecified), the Potency was inactive: > 76.9 µM.

`O=C(c1ccccc1)c1nc[nH]c1C(=O)Nc1ccccn1`: the Potency was inactive: > 76.9 µM.

As to `CCN(C(=O)COC(=O)c1cnc(C)cn1)C1CCCCC1`, the Potency is inactive: > 76.9 µM.

Consider `Cc1ccc2cc(CN(Cc3cccs3)Cc3nnnn3CC3CCCO3)c(=O)[nH]c2c1C` (stereo unspecified), for which the Potency is inactive: > 76.9 µM.

For the molecule `O=C(NC1CC1)C1C2C3C4CC5C3C5C4C12` (stereo unspecified), the Potency was inactive: > 76.9 µM.

Take `CCC(OC(=O)c1nsc(Cl)c1Cl)C(=O)NCc1ccco1` (stereo unspecified): the Potency is inactive: > 76.9 µM.

Take `COC(=O)c1ccc(CSc2nnc(Nc3ccccc3OC)s2)o1`: the Potency is inactive: > 76.9 µM.

As for `Cc1cc(NC(=O)c2ccccc2-c2ccccc2C(=O)O)no1`, the Potency is inactive: > 76.9 µM.

In the case of `Cc1ccc(-n2c(C)cc(C(=O)OCC(=O)N(C)C3CCS(=O)(=O)C3)c2C)cc1` (stereo unspecified), the Potency was inactive: > 76.9 µM.

As for `CCOCC(=O)Nc1nc2ccc(S(C)(=O)=O)cc2s1`, the Potency is inactive: > 76.9 µM.

Take `Cc1nnc(NC(=O)CSc2ccccn2)s1`: the Potency was inactive: > 76.9 µM.

Source of the values: PubChem BioAssay AID360 (National Center for Advancing Translational Sciences (NCATS), 2006).
